Here are results for one molecule from publication PMC5615199, “Structural Basis for EarP-Mediated Arginine Glycosylation of Translation Elongation Factor EF-P” (mBio, 2017).

In this assay the target is EarPPpu, EarP from Pseudomonas putida KT2440, purified His6-tagged protein (Pseudomonas putida KT2440) (UniProt Q88LS1). The assay is described as follows: SAXS; EarP at 1.0, 2.0, 4.0 and 8.0 mg/ml, free and with TDP-Rha in 7:1 excess, 20°C; scattering back-calculated from the crystal structure fitted to the data; both purified.

These are yes or no findings as the source states them, for the method shown. Where a sequence is shown, tags or fusion partners need not be part of it.

B1: EarPPpu, EarP from Pseudomonas putida KT2440, purified His6-tagged protein (enzyme, UniProt Q88LS1 2-377)
chain: KATWDIFCSVVDNYGDIGVTWRLARQLVAEHGLAVRLWVDDLNAFTPMCPGADATAAQQWQHGVDVRHWPAAWLPVAPADVVIGAFACQLPAAYVEAMRARPQPPLWLNLEYLSAEDWVEGCHGLPSPQPNGLRKVFFFPGFTDKTGGLLREGSLLARRDGFQQSAEARRAFLQGLGVDLVPGALLISLFAYENPQLGNWLDALATADQPCHLLVPQGRVVAGLSQWLGEGPLHVGDVRTRGALTVQVLPFVSQDDFDRLLWSCDFNAVRGEDSFVRAQWAGQPMLWHIYVQDENAHWEKLEAFLAHYRCGLSDDADAALLGLWRAWNMDFDMGQAWRAARQHWPELQQHARLWGARQAAQPDLATALVHFYRNSL
Regarding B1, the binding entry is “no binding (tested: 1.0 to 8.0 mg/ml)”.
